In the supplement of paper PMC8728848:
This is one part of the list.

How the values were obtained:
Test in all cases: glycan array binding signal (z-score within array); higher = stronger binding
Details in all cases: glycan notation: IUPAC condensed, linker removed
[1] = target: Neu5Ac(a2-3)Gal(b1-3)[Neu5Ac(a2-6)]GalNAc
In short: (§1)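 The binding signal is a Z-score computed within each array and averaged over linkers. Arrays of the same protein sequence at different concentrations or buffers were also averaged together. Data originate from 3228 arrays in the Consortium for Functional Glycomics database, kept only where the protein sequence was available.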

Neu5Ac(a2-3)Gal(b1-4)Glc = target: Neu5Ac(a2-3)Gal(b1-4)Glc
In short: as §1

[2] = target: Neu5Ac(a2-3)Gal(b1-4)GlcNAc
In short: as §1

[3] = target: Neu5Ac(a2-3)Gal(b1-4)GlcNAc(b1-2)Man(a1-3)[Neu5Ac(a2-3)Gal(b1-4)GlcNAc(b1-2)Man(a1-6)]Man(b1-4)GlcNAc(b1-4)GlcNAc
In short: as §1

[4] = target: Neu5Ac(a2-3)Gal(b1-4)GlcNAc(b1-3)Gal(b1-4)GlcNAc
In short: as §1

[5] = target: Neu5Ac(a2-3)Gal(b1-4)GlcNAc(b1-3)Gal(b1-4)GlcNAc(b1-3)Gal(b1-4)GlcNAc
In short: as §1

[6] = target: Neu5Ac(a2-3)Gal(b1-4)GlcNAc(b1-3)Gal(b1-4)[Fuc(a1-3)]GlcNAc
In short: as §1

[7] = target: Neu5Ac(a2-3)Gal(b1-4)GlcNAc6S
In short: as §1

[8] = target: Neu5Ac(a2-3)Gal(b1-4)[Fuc(a1-3)]GlcNAc
In short: as §1

[9] = target: Neu5Ac(a2-3)Gal(b1-4)[Fuc(a1-3)]GlcNAc(b1-3)Gal
In short: as §1

[10] = target: Neu5Ac(a2-3)Gal(b1-4)[Fuc(a1-3)]GlcNAc(b1-3)Gal(b1-4)GlcNAc
In short: as §1

[11] = target: Neu5Ac(a2-3)Gal(b1-4)[Fuc(a1-3)]GlcNAc(b1-3)Gal(b1-4)[Fuc(a1-3)]GlcNAc(b1-3)Gal(b1-4)[Fuc(a1-3)]GlcNAc
In short: as §1

[12] = target: Neu5Ac(a2-3)Gal(b1-4)[Fuc(a1-3)]GlcNAc6S
In short: as §1

[13] = target: Neu5Ac(a2-3)Gal6S(b1-4)GlcNAc
In short: as §1

[14] = target: Neu5Ac(a2-3)Gal6S(b1-4)[Fuc(a1-3)]GlcNAc
In short: as §1

Neu5Ac(a2-3)GalNAc = target: Neu5Ac(a2-3)GalNAc
In short: as §1

[15] = target: Neu5Ac(a2-3)GalNAc(b1-4)GlcNAc
In short: as §1

[16] = target: Neu5Ac(a2-3)[GalNAc(b1-4)]Gal(b1-4)Glc
In short: as §1

[17] = target: Neu5Ac(a2-3)[GalNAc(b1-4)]Gal(b1-4)GlcNAc
In short: as §1

[18] = target: Neu5Ac(a2-3)[Neu5Ac(a2-6)]GalNAc
In short: as §1

Neu5Ac(a2-6)Gal = target: Neu5Ac(a2-6)Gal
In short: as §1

Neu5Ac(a2-6)Gal(b1-4)Glc = target: Neu5Ac(a2-6)Gal(b1-4)Glc
In short: as §1

[19] = target: Neu5Ac(a2-6)Gal(b1-4)GlcNAc
In short: as §1

[20] = target: Neu5Ac(a2-6)Gal(b1-4)GlcNAc(b1-3)Gal(b1-4)GlcNAc
In short: as §1

[21] = target: Neu5Ac(a2-6)Gal(b1-4)GlcNAc(b1-3)Gal(b1-4)[Fuc(a1-3)]GlcNAc(b1-3)Gal(b1-4)[Fuc(a1-3)]GlcNAc
In short: as §1

[22] = target: Neu5Ac(a2-6)Gal(b1-4)GlcNAc6S
In short: as §1

Neu5Ac(a2-6)GalNAc = target: Neu5Ac(a2-6)GalNAc
In short: as §1

[23] = target: Neu5Ac(a2-6)GalNAc(b1-4)GlcNAc
In short: as §1

Neu5Ac(a2-8)Neu5Ac = target: Neu5Ac(a2-8)Neu5Ac
In short: as §1

[24] = target: Neu5Ac(a2-8)Neu5Ac(a2-3)Gal(b1-4)Glc
In short: as §1

[25] = target: Neu5Ac(a2-8)Neu5Ac(a2-3)[GalNAc(b1-4)]Gal(b1-4)Glc
In short: as §1

[26] = target: Neu5Ac(a2-8)Neu5Ac(a2-8)Neu5Ac
In short: as §1

[27] = target: Neu5Ac(a2-8)Neu5Ac(a2-8)Neu5Ac(a2-3)Gal(b1-4)Glc
In short: as §1

[28] = target: Neu5Ac(a2-8)Neu5Ac(a2-8)Neu5Ac(a2-3)[GalNAc(b1-4)]Gal(b1-4)Glc
In short: as §1

[29] = target: Neu5Ac(a2-8)Neu5Ac(a2-8)Neu5Ac(a2-8)Neu5Ac(a2-3)[GalNAc(b1-4)]Gal(b1-4)Glc
In short: as §1

Neu5Ac(b1-6)GalNAc = target: Neu5Ac(b1-6)GalNAc
In short: as §1

[30] = target: Neu5Ac(b2-6)Gal(b1-4)GlcNAc
In short: as §1

[31] = target: Neu5Ac9Ac(a2-6)Gal(b1-4)GlcNAc
In short: as §1

[32] = target: Neu5Gc(a2-3)Gal(b1-3)GlcNAc
In short: as §1

[33] = target: Neu5Gc(a2-3)Gal(b1-3)[Fuc(a1-4)]GlcNAc
In short: as §1

Neu5Gc(a2-3)Gal(b1-4)Glc = target: Neu5Gc(a2-3)Gal(b1-4)Glc
In short: as §1

[34] = target: Neu5Gc(a2-3)Gal(b1-4)GlcNAc
In short: as §1

[35] = target: Neu5Gc(a2-3)Gal(b1-4)[Fuc(a1-3)]GlcNAc
In short: as §1

[36] = target: Neu5Gc(a2-6)Gal(b1-4)GlcNAc
In short: as §1

Neu5Gc(a2-6)GalNAc = target: Neu5Gc(a2-6)GalNAc
In short: as §1

B1: RSVL (Crotalus atrox), P21963 (protein)
chain: NNCPLDWLPMNGLCYKIFNQLKTWEDAEMFCRKYKPGCHLASFHRYGESLEIAEYISDYHKGQENVWIGLRDKKKDFSWEWTDRSCTDYLTWDKNQPDHYQNKEFCVELVSLTGYRLWNDQVCESKDAFLCQCKF
B1 was tested, and the “glycan array binding signal (z-score)” value [1] was -0.363, the “glycan array binding signal (z-score)” value (Neu5Ac(a2-3)Gal(b1-4)Glc) was -0.367 and the “glycan array binding signal (z-score)” value [2] was -0.349. The “glycan array binding signal (z-score)” value [3] was -0.362, the “glycan array binding signal (z-score)” value [4] was -0.365 and the “glycan array binding signal (z-score)” value [5] was -0.325. For the same binder, the “glycan array binding signal (z-score)” value [6] was -0.367, the “glycan array binding signal (z-score)” value [7] was -0.366 and the “glycan array binding signal (z-score)” value [8] was -0.337. For the same binder, the “glycan array binding signal (z-score)” value [9] was -0.348, the “glycan array binding signal (z-score)” value [10] was -0.365 and the “glycan array binding signal (z-score)” value [11] was -0.368. For the same binder, the “glycan array binding signal (z-score)” value [12] was -0.345, the “glycan array binding signal (z-score)” value [13] was -0.329 and the “glycan array binding signal (z-score)” value [14] was -0.37. The “glycan array binding signal (z-score)” value (Neu5Ac(a2-3)GalNAc) was -0.367, the “glycan array binding signal (z-score)” value [15] was -0.342 and the “glycan array binding signal (z-score)” value [16] was -0.241. The “glycan array binding signal (z-score)” value [17] was -0.365, the “glycan array binding signal (z-score)” value [18] was -0.368 and the “glycan array binding signal (z-score)” value (Neu5Ac(a2-6)Gal) was -0.367. For the same binder, the “glycan array binding signal (z-score)” value (Neu5Ac(a2-6)Gal(b1-4)Glc) was -0.305, the “glycan array binding signal (z-score)” value [19] was -0.366 and the “glycan array binding signal (z-score)” value [20] was -0.365. For the same binder, the “glycan array binding signal (z-score)” value [21] was -0.368, the “glycan array binding signal (z-score)” value [22] was -0.366 and the “glycan array binding signal (z-score)” value (Neu5Ac(a2-6)GalNAc) was -0.314. For the same binder, the “glycan array binding signal (z-score)” value [23] was -0.369, the “glycan array binding signal (z-score)” value (Neu5Ac(a2-8)Neu5Ac) was -0.367 and the “glycan array binding signal (z-score)” value [24] was -0.369. The “glycan array binding signal (z-score)” value [25] was -0.358, the “glycan array binding signal (z-score)” value [26] was -0.366 and the “glycan array binding signal (z-score)” value [27] was -0.366. The “glycan array binding signal (z-score)” value [28] was -0.362, the “glycan array binding signal (z-score)” value [29] was -0.367 and the “glycan array binding signal (z-score)” value (Neu5Ac(b1-6)GalNAc) was -0.367. For the same binder, the “glycan array binding signal (z-score)” value [30] was -0.301, the “glycan array binding signal (z-score)” value [31] was -0.34 and the “glycan array binding signal (z-score)” value [32] was -0.365. The “glycan array binding signal (z-score)” value [33] was -0.232, the “glycan array binding signal (z-score)” value (Neu5Gc(a2-3)Gal(b1-4)Glc) was -0.365 and the “glycan array binding signal (z-score)” value [34] was -0.361. The “glycan array binding signal (z-score)” value [35] was -0.369, the “glycan array binding signal (z-score)” value [36] was -0.366 and the “glycan array binding signal (z-score)” value (Neu5Gc(a2-6)GalNAc) was -0.366.
